Experimental data reported in ChEMBL document CHEMBL4888484, “Replenishing the malaria drug discovery pipeline: Screening and hit evaluation of the MMV Hit Generation Library 1 (HGL1) against asexual blood stage Plasmodium falciparum ,using a nano luciferase reporter read-out” (2022).
The campaign covered roughly 150,000 compounds. About 540 (0.36%) showed an effect of 50% or more. This is one part of the list.

tested on: Plasmodium falciparum; test: Primary screen in NF54 nanoGlo assay, in single point, at 2uM, 72h; a lower Z score goes with more inhibition; format: functional, Erythrocyte; conditions: timepoint 72 hour

Compound | % Inhibition [%] | Z score
CN(CC1CCCN(C(=O)C(Cc2ccccc2)NC(=O)c2ccccc2)C1)C(=O)OC(C)(C)C (stereo not drawn) | -13 | 2.65
CCOc1cccc(-c2ccc3nc(-c4ccc(F)cc4)c(CN4CCN(C(=O)c5ccccc5)CC4)n3c2)c1 | 1 | -0.12
CC1CN(C(=O)Nc2nc3ccccc3s2)CC(C)O1 (stereo not drawn) | -2 | 0.23
Cc1noc(CN(C)C2CCN(Cc3ccco3)CC2)n1 | -7 | 1.55
O=C(NC[C@H]1CCCO1)c1nc2n(c1Br)CCC2 | -16 | 1.61
Cc1cnccc1N1CCC(C(=O)N2CCOC[C@@H]2C)CC1 | -6 | 0.78
CC1(C)CC(NC(=O)CCC2CCCCC2)CC(C)(C)N1 | -12 | 1.63
Cc1ncsc1CCOC(=O)[C@@H]1CCCN1C(=O)CC(C)(C)C | -9 | 1.47
CC(C)CN1CC(=O)C(c2nc3ccccc3[nH]2)=C1N | 8 | -0.95
Cc1ccc(-c2nnc(N3CCC4(CCOC4)C3)n2CC2CCCO2)s1 (stereo not drawn) | -3 | 0.32
CC(=O)N(Cc1ccccc1C)c1nc2ccccc2n(CC(=O)Nc2ccc(F)cc2)c1=O | -2 | 0.27
O=C(c1ccc[nH]1)N1CCC(Oc2cccc(C(F)(F)F)c2)CC1 | 13 | -1.85
CC(C)(C)[C@H](NCC(=O)NC(=O)NCC(F)(F)F)c1cccs1 | -38 | 4.49
CC(C)C(=O)Nc1nc(-c2ccc(S(=O)(=O)N3CCOCC3)cc2)cs1 | -10 | 1.41
CC1CN(CC2CN(C)CCO2)CCN1C(=O)Nc1ccccc1 (stereo not drawn) | -8 | 1.51
O=C(NS(=O)(=O)Oc1ccccc1F)OC[C@@H]1CCCN2CCCCC12 (stereo partly drawn) | -6 | 0.83
CCc1cc(-c2cccc(C(=O)N3C[C@@H]4[C@@H](CN(C)C)[C@@H]4C3)c2)nc(C)n1 | 0 | 0
O=c1[nH]c2cccc(N3CCN(Cc4ncccc4Cl)CC3)c2[nH]1 | -4 | 0.59
O=C1[C@@H](Nc2ccn(CC(F)(F)F)n2)CCN1c1ccccc1 | -2 | 0.3
Nc1ccccc1NS(=O)(=O)C(F)(F)F | 1 | -0.12
CCCCS(=O)(=O)Oc1ccc2c(c1)ncn2C | -11 | 2.08

Compound | % Inhibition [%] | Z score
Cc1nnc(CN2CCC[C@H](c3cc(O)ncn3)C2)s1 | 4 | -0.81
CCC(C)NC(=O)c1coc(CN(Cc2ccccc2OC)C(C)C(C)C)n1 (stereo not drawn) | 6 | -1.08
Cc1ccccc1C(=O)N(Cc1cccc(F)c1)c1ccc(CC(=O)NCc2ccc(F)cc2)cc1 | -1 | 0.16
Cc1cccc(S(=O)(=O)N2C[C@@H](F)C[C@H]2C(=O)N2CCc3ccccc3C2)c1 | 3 | -0.3
CCn1nc(C)cc1C(=O)N1C(C)COC(c2ccccc2)C1C (stereo not drawn) | 3 | -0.3
C=CCN(CC(=O)Nc1nc(-c2ccccc2)cn1-c1ccc(C)cc1)C(=O)Cc1ccccc1 | 3 | -0.33
O=C(COc1ccc(Br)cc1)N1CCN(S(=O)(=O)c2ccc3ccccc3c2)CC1 | -3 | 0.36
OCc1ccc(CNc2ccc(Cc3nnc4ccccn34)cc2)o1 | 1 | -0.08
C[C@]1(O)CCN(C(=O)CCc2ccc(-c3ccccc3)cc2)C[C@@H]1O | -13 | 1.23
CN(Cc1c[nH]cn1)[C@H]1CCc2ccccc2C1 | -15 | 1.74
Cc1ccc(CN(C(C)C)S(=O)(=O)[C@@H](C)C(F)(F)F)o1 | 9 | -0.76
CCOc1ccc(NC(=O)c2cc3nccc(-c4cnn(C)c4C)n3n2)cc1 | 4 | -0.55
N#Cc1c(N)sc2c1CCN(CC(=O)Nc1ccc3c(c1)OC1(CCCCC1)O3)C2 | -9 | 0.84
COCCn1nnnc1[C@]1(N2CCCC2)CCN(C(=O)CCC2CCCCC2)C1 | -5 | 0.63
CCCC(=O)Nc1ccc2c(c1)CN(C(=O)c1cc(C)ccc1C)[C@H](C(=O)N(C)C)C2 | -1 | 0.19
CN(C)C(=O)c1ccccc1OC(F)F | -7 | 1.02
COc1ccc2c(c1)OC(C)CN(CC(=O)NC(C)c1nc3cc(C)ccc3[nH]1)C2 (stereo not drawn) | 1 | -0.08
O=C(NC1CCCCC1CO)c1ccc2[nH]ncc2c1 (stereo not drawn) | -5 | 0.78
O=C(CC1OCCCO1)N1CCCC1CC(O)c1ccc(F)cc1 (stereo not drawn) | -10 | 1.41
CCC(CC)(C(=O)Nc1n[nH]c2c1CNCC2)c1ccccc1 | -4 | 0.85
O=C(NC[C@H]1CCCO1)c1nnc(-c2cccc(Cl)c2)o1 | -12 | 1.81

Compound | % Inhibition [%] | Z score
O=C(Nc1ccc(C(=O)N2CCC[C@H](c3nc4ccccc4s3)C2)cc1)c1cccs1 | -9 | 1.45
Cc1cnc(C2CCC2)n1CC1CCN(C(=O)Nc2ccccc2)CC1 | 1 | -0.19
Cn1cc(CC(=O)NCc2ccc(Cl)cc2)c2cccnc21 | -13 | 1.51
FC(F)(F)c1cc(N2CCN(CCCn3ccnc3)CC2)ccc1Cl | 0 | 0.06
CON(C)S(=O)(=O)c1cnn(C)c1 | 2 | -0.33
Cc1cc(-c2cc(S(=O)(=O)N3CCOCC3)c(C)s2)on1 | -6 | 0.57
CC(=O)N1CC(C(=O)NC(C)c2ccccc2)CCC1c1ccc(F)c(C)c1 (stereo not drawn) | -4 | 0.57
CC1(C)CC2(CC(c3ccccc3)Oc3cc(O)ccc32)NC(=O)N1 (stereo not drawn) | 3 | -0.39
COc1ccc(OC)c(NC(=O)Cn2cc(OC)c(=O)cc2CN2CCCCCC2)c1 | -8 | 1.38
O=C(CCc1nc2ccccc2[nH]1)N1C[C@@H](CO)[C@H](c2ccccn2)C1 | -6 | 1.19
O=C(Cc1cccc(C(F)(F)F)n1)N[C@H]1CCOC2(CCCC2)C1 | -1 | 0.28
COc1ccc(-c2cn(CC(=O)Nc3c(C)cccc3C)nc2N2CCOCC2)cc1 | -5 | 0.57
Cc1cc(CN2CCC(C)CC2)c(C)c(CN2CC(c3ccccn3)C2)c1 | -5 | 0.84
COC(=O)N1CCCC(C(=O)OC(c2nccn2C)C(F)(F)F)C1 (stereo not drawn) | -2 | 0.23
NC(=O)Cn1ccnc1[C@H]1CCCN(C(=O)NCCc2cccs2)C1 | 5 | -0.51
O=c1c2cc(Cl)ccc2ncn1C[C@H]1CCCO1 | -12 | 1.18
CNCCOc1ccc(Br)cc1 | 0 | -0.06
Cc1ccc(-c2cc(C(=O)N3CCN(c4ccccc4)C(=O)[C@@H]3C)n[nH]2)s1 | -13 | 1.78
NC(=O)c1csc(C(=O)NC2(c3ccccc3)CCCC2)c1 | -3 | 0.6
C[C@](O)(CNC(=O)c1c(F)cccc1F)c1ccc(-c2ccccc2)cc1 | -8 | 1.4
Cc1oc2ncn(C)c(=O)c2c1C(=O)N1CCN(c2ccccn2)CC1 | -7 | 1.28

Compound | % Inhibition [%] | Z score
O=C(Nc1ccc2oc(-c3cc(Cl)ccc3Cl)nc2c1)c1ccc2c(c1)OCCO2 | -15 | 1.99
CC[C@H]1CN(Cc2cccn2-c2nccs2)CCN1C | -2 | 0.41
O=S(=O)(NC1(c2ccccc2Cl)CC1)N1CCCC1 | -16 | 3.03
CCn1nnc2c(=O)n(Cc3cccc4ccccc34)cnc21 | -2 | 0.28
N#Cc1c(F)cccc1NCC1(CCO)CC1 | -4 | 0.52
Cc1noc([C@@]23CN(C(=O)c4ccccc4)C[C@@H]2CN(C(=O)c2c(C)noc2C)C3)n1 | -17 | 2.26
CCC(O)CN1C(=O)CC(C)(CC(C)C)C1=O (stereo not drawn) | -2 | 0.32
O=C(Nc1ccc(-n2cnnn2)cc1)C(c1ccccc1)c1ccccc1 | -5 | 0.52
CCOCCC1(CNC(=O)N2CCCC2(C)C)CCC1 | -18 | 2.42
O=C(CC1C=CCCC1)NC1CCc2nnnn2CC1 (stereo not drawn) | 1 | -0.18
CC(C)C(=O)N1CCC([C@@H]2CN(Cc3ccccc3Cl)C[C@H]2CO)CC1 | -11 | 1.24
Cc1nc(C2CCOCC2)n([C@H]2CCN(S(=O)(=O)c3ccc(F)cc3F)C2)n1 | -5 | 0.72
CN(CC=Cc1ccc(F)cc1)CCN1CCCC1=O | -10 | 1.54
Cc1cccc(-c2ncc(C(=O)N3CCN(c4ncccn4)CC3)c(O)n2)c1 | -5 | 1.02
CC(C)[C@H](NC(=O)c1ccccc1)c1nnn(C)n1 | -8 | 1
COc1ccc(CCNC(=O)c2c[nH]nc2-c2ccccc2)cc1 | 0 | 0.03
N#CC1(NC(=O)Cc2c[nH]c3cc(Cl)ccc23)CCC1 | -3 | 0.55
O=C(Nc1nc(-c2ccncc2)ns1)c1cncc(F)c1 | -13 | 1.43
CCCc1sc(C(=O)NCCNC(=O)N(C)C)cc1CC | -12 | 1.18
O=C(c1n[nH]c2c1CCC2)N(Cc1ccco1)C[C@H]1CCCO1 | 8 | -0.99
Cc1c(C(C)C)c(=O)n(-c2ccc(S(=O)(=O)Nc3cccc(S(=O)(=O)NC4CC4)c3)cc2)n1C | -3 | 0.26
